Reference: PubChem BioAssay AID485294 (National Center for Advancing Translational Sciences (NCATS), 2010)
Hit rate of the full screen: of about 370,000 compounds, about 150 (0.041%) were called active. The inconclusive results got no clear call from the source; some entries with a clear call stand among them for comparison. The call rests on the fitted dose curve; in most records, active means well fitted inhibition curve with a large enough effect; inconclusive means small, poorly fitted or top-dose-only effect; inactive means flat fitted curve, though single readings scatter. Potencies of inconclusive entries are left out as doubtful fits.

biological target: Beta-lactamase (Escherichia coli (strain K12)) (UniProt P00811); assay: qHTS Inhibitors of AmpC Beta-Lactamase (assay with detergent); settings: AmpC hydrolysis of nitrocefin, absorbance 480 nm, 0.01% Triton; activity change, negative = inhibition: at 114 µM (top of the series); further: nearly all actives have a fitted effect of over 25% in size;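 on activity change, negative = inhibition: 0% = no-compound wells and -100% = no-enzyme wells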
Sequence of UniProt P00811 (P00811 whole entry, looked up): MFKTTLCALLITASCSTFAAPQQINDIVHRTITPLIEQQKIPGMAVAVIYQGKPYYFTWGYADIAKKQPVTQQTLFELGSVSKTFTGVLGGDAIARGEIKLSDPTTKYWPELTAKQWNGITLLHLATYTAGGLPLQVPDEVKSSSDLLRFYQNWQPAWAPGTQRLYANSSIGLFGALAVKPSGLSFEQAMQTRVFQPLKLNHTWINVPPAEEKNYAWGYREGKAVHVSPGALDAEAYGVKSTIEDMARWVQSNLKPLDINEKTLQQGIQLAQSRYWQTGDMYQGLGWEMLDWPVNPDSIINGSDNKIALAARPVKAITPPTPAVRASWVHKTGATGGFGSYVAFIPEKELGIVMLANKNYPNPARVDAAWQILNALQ
Outline: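 20 mM phosphate pH 7.0 + 0.01% (detergent screen) or 0.0001% Triton X-100; 5.3 nM AmpC reagent; cpd preinc 15 min RT; nitrocefin (800 uM stock) to start; A480 q20 s × 4 min; Activity was normalised to no-enzyme and no-compound control wells.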
Potency means the concentration at half of the fitted maximal effect; tags describe the fitted curve by direction and shape.

Row | SMILES | activity change, negative = inhibition | Potency
1 | C/C(=N\NC(=O)c1nnn(-c2nonc2N)c1CN(C)c1ccccc1)c1ccccn1 | inactive: 2.03% | 
2 | O=C(COC(=O)Cc1ccc(Cl)cc1)Nc1ccc(OC(F)F)cc1 |  | inconclusive [inhibitor, single point]
3 | Cc1noc(C)c1S(=O)(=O)N1CCC(C(=O)Nc2ccc(Br)cc2)CC1 |  | inconclusive [inhibitor, full curve, poor fit]
4 | Cc1cc(NC(=O)COc2cccc(C)c2C)no1 |  | inconclusive [inhibitor, full curve, poor fit]
5 | COC(=O)c1ccc(-c2ccco2)n1Cc1cccc(C)c1 |  | inconclusive [inhibitor, single point]
6 | COc1ccc(C2CCCN2C(=O)Nc2cccc(C(C)=O)c2)cc1OC (configuration not stated) |  | inconclusive [inhibitor, partial curve]
7 | COc1ccc(CC(=O)Nc2cc(Cl)ccc2O)cc1 | inactive: 3.77% | 
8 | C=C(C)CC1Nc2ccccc2NC1CC(=C)C (configuration not stated) |  | inconclusive [inhibitor, full curve, poor fit]
9 | Cc1ccc(CNC(=O)c2cn(C)c(=O)c3c2c2ccccc2n3C)o1 | inactive: 2.57% | 
10 | CC(C)(C)c1ccc(C(=O)Nc2cc(-c3nc4ccccc4o3)ccc2Cl)cc1 | inactive: 20.8% | 
11 | CCc1ccccc1NC(=O)c1ccc2c(c1)CCN2S(C)(=O)=O |  | inconclusive [inhibitor, full curve, poor fit]
12 | O=C(CCNS(=O)(=O)c1ccc(Cl)cc1)N1CCCC1 | inactive: 2.65% | 
13 | CSc1ccc(/C=N/NC(=O)CN2CCN(Cc3ccc(C)cc3)CC2)cc1 | inactive: 0.169% | 
14 | COc1ccc(N2CCN(c3nc(Nc4ccc(C)c(F)c4)nc(N4CCCC4)n3)CC2)cc1 | inactive: -2.28% | 
15 | Cc1ccc(-c2nc(CS(=O)(=O)CC(=O)N3CCN(C)CC3)c(C)o2)cc1 | inactive: -0.0596% | 
16 | S=C(NCCc1ccccn1)Nc1ccc(Cl)cc1 |  | inconclusive [inhibitor, full curve, poor fit]
17 | O=C(Nc1ccccc1Cl)N1CCN(c2ccc3nncn3n2)CC1 |  | inconclusive [inhibitor, full curve, poor fit]
18 | COc1ccc(C(=O)Nc2ccccc2C(=O)N/N=C/c2ccccn2)cc1OC | inactive: -0.291% | 
19 | COC(=O)c1ccc(NC(=S)N2CCCC2)cc1 |  | inconclusive [inhibitor, partial curve]
20 | COc1cccc(C2C(C#N)=C(N)Oc3cc(C)n(Cc4ccco4)c(=O)c32)c1 (configuration not stated) |  | inconclusive [inhibitor, partial curve, poor fit]
21 | O=C(Nc1sc2c(c1C(=O)O)CCCC2)c1ccc(F)cc1 | inactive: -13% | 
22 | COc1ccc(NC(=O)CN(C)C(=O)c2oc3ccccc3c2C)cc1 | inactive: -9.29% | 
23 | c1ccc(C2CNCc3c2ccc2ccccc32)cc1 (configuration not stated) |  | inconclusive [inhibitor, partial curve, poor fit]
24 | COc1cc(OC)c(OC)cc1/C=N/Nc1ccc(Cl)nn1 | inactive: 1.8% | 

Row | SMILES | activity change, negative = inhibition | Potency
25 | CSCCC(NC(=O)COc1ccccc1)C(=O)N(C)Cc1ccc(Cl)cc1Cl (configuration not stated) |  | inconclusive [inhibitor, full curve, poor fit]
26 | CN1CCN(Cc2cc3c(cc2[N+](=O)[O-])OCO3)CC1 |  | inconclusive [inhibitor, partial curve, poor fit]
27 | CCc1ccc(OCC(=O)O/N=C(\N)c2ccncc2)cc1 | inactive: 4.47% | 
28 | O=C(NCC(c1ccco1)N1CCc2ccccc21)c1cccc(F)c1 (configuration not stated) |  | inconclusive [inhibitor, partial curve, poor fit]
29 | CC(C)c1ccc(NC(=O)COC(=O)CSc2nnc(N)s2)cc1 |  | inconclusive [inhibitor, single point]
30 | CCOc1ccc(-c2n[nH]c(=S)o2)cc1 | inactive: -2.61% | 
31 | CCOc1cccc(C(=O)Nc2ccc3ccccc3c2)c1 |  | inconclusive [inhibitor, full curve, poor fit]
32 | O=C(Nc1nc2ccccc2n1CCN1CCOCC1)c1ccc(COc2ccccc2Br)o1 |  | inconclusive [inhibitor, full curve, poor fit]
33 | CC1=NN(C(N)=S)C(=O)C1N=Nc1c(Cl)cc([N+](=O)[O-])cc1Cl (configuration not stated) |  | inconclusive [inhibitor, full curve, poor fit]
34 | CN(C)CCN(C(=O)c1ccc(S(=O)(=O)N(C)CC2CCCO2)cc1)c1nc2cc3c(cc2s1)OCO3 (configuration not stated) | inactive: -4.58% | 
35 | Cc1c(C(=O)Nc2ccc(F)cc2)oc2ccc(S(=O)(=O)N3CC(C)CC(C)C3)cc12 (configuration not stated) | inactive: -9.74% | 
36 | Cc1ccc(N(C(=O)c2ccccc2Cl)C2=NC(C)CS2)c(C)c1 (configuration not stated) |  | inconclusive [inhibitor, full curve, poor fit]
37 | COC(=O)c1ncn(C2OC(COC(C)=O)C(OC(C)=O)C2OC(C)=O)n1 (configuration not stated) |  | inconclusive [inhibitor, partial curve]
38 | CCCCCCCC1CC(CSC(=N)N)OC1=O (configuration not stated) |  | inconclusive [inhibitor, single point]
39 | Cc1cc(C)nc(NC(=O)/C=C/c2cccs2)c1 | inactive: -0.516% | 
40 | COc1ccc(C(C(=O)NC2CCCCC2)N(C(=O)CCCC(=O)Nc2ccccn2)c2ccc3c(c2)OCCO3)cc1 (configuration not stated) | inactive: -2% | 
41 | O=[N+]([O-])c1ccc(C(O)CN2CCN(C/C=C/c3ccccc3)CC2)cc1 (configuration not stated) | inactive: -3.16% | 
42 | Cc1cc(C)n(CCC(=O)N2CCc3ccccc32)n1 |  | inconclusive [inhibitor, full curve, poor fit]
43 | Cc1cccc(C(=O)NNC(=O)c2n[nH]c(=O)c3ccccc23)c1C |  | inconclusive [inhibitor, partial curve]
44 | Cc1ccccc1CN1c2ccccc2S(=O)(=O)c2ccccc21 | inactive: 26.5% | 
45 | O=C(COC(=O)c1ccc(NS(=O)(=O)c2ccc3c(c2)OCCO3)cc1)NC1CC1 |  | inconclusive [inhibitor, partial curve]
46 | Fc1cccc2sc(N3CCCCC3)nc12 |  | inconclusive [inhibitor, full curve, poor fit]
47 | CCOc1ccccc1NC(=O)C1C2CCC(O2)C1C(=O)O (configuration not stated) |  | inconclusive [inhibitor, partial curve, poor fit]
